Over roughly 13,000 compounds, “IFI” has its median near 4; the highest 2% begin near 17. The list shows a part of the results.
Assay: GSK_TCMDC: Inhibition Frequency Index (IFI). The number of non-kinase HTS assays where a compound showed > 50 % inhibition, expressed as a percentage of the number of such assays in which the compound was tested (-0 is zero)
Assay type: functional

SMILES | IFI [%]
O=C(NCCCCCN1CCC(c2c[nH]c3ccccc23)CC1)c1ccc(Cl)c(Cl)c1 | 7.69
O=[N+]([O-])c1cccc(CNCC2CCN(Cc3ccc(-c4ccccc4)cc3)CC2)c1 | 6.34
CCNC(=O)c1ccc(-n2nc(C)cc2-c2ccccc2)cc1 | 0.95
CC(C)C[C@@H](/C=N/N1CCOC1=O)NC(=O)[C@H](CC(C)C)NC(=O)c1ccc(F)cc1 | 2.73
CC(C)(C)c1ccc(CNC(=O)c2cc(CNC3CCNCC3)ccc2O)cc1 | 1.42
N#Cc1ccc(Sc2nnc(-c3ccccc3Cl)n2CC2CCCCC2)cc1[N+](=O)[O-] | 9.15
COc1ccc2nccc(NC(=O)C3(O)CCC(NCc4ncc5c(c4Cl)OCCO5)CC3)c2n1 (stereo not drawn) | 3.7
CSc1sc(NC(=O)Nc2cccc(C(F)(F)F)c2)cc1C#N | 17
CC1CCN(CC[C@H]2CCCN2S(=O)(=O)c2cccc(NC(=O)Nc3ccc(C(F)(F)F)cc3)c2)CC1 | 3.62
Cc1cccc2nc(-c3cccc(-c4cccc(CNCC5CCCO5)c4)c3)[nH]c12 (stereo not drawn) | 4.95
O=C(Nc1ccon1)c1cc(-c2cccnc2)nc2ccc(Br)cc12 | 4.41
Cc1ccccc1C1CCN(C2CCC(NC(=O)C3=Cc4ccccc4OC3)CC2)CC1 (stereo not drawn) | -0
COc1ccc(C2C(C(=O)Nc3ccc(C)c(F)c3)c3cc(OC)c(OC)cc3C(=O)N2C)cc1 (stereo not drawn) | -0
CCCC(CNCc1cccc(I)c1)CNc1cc(=O)c2ccccc2[nH]1 (stereo not drawn) | 4.29
CC(C)(O)CC(C)(C)c1cc(Cl)ccc1O | 0.76
Cc1cc(C)c(C(=O)Nc2ccc3nc(C)cc(N)c3c2)c(C)c1 | 0.7
O=C(/C=C/c1cccs1)NCC(NCCCNc1cc(=O)c2ccccc2[nH]1)c1cc(Br)cc(Br)c1 (stereo not drawn) | 5.88
COc1ccc(CNC2Cc3ccccc3C2)cc1-c1ccc(S(=O)(=O)NCCc2ccccn2)s1 | 8.41
CCc1c(CCNCCc2cccc(CCNCCc3ccc(OC)c(OC)c3CC)c2)ccc(OC)c1OC | 12.2
OC(CN(Cc1ccccc1)Cc1ccccc1)Cn1c2ccc(Cl)cc2c2cc(Cl)ccc21 (stereo not drawn) | 1.47

SMILES | IFI [%]
CCCC(C)N(Cc1ccc(C(C)(C)C)cc1)C(=O)c1ccc(OC)cc1 (stereo not drawn) | 2.21
Cc1ccc(NC(=O)Nc2ccccc2)cc1-c1ccc(C(=O)Nc2ccncc2)cc1 | 25.7
COc1cc2c(cc1C(F)(F)F)N(C(=O)Nc1cccc(-c3ccc(CN(C)C)cc3)c1)CC2 | 6.06
COC(=O)CCCCOc1cc(Cc2cnc(N)nc2N)cc(OC)c1OC | 0.74
c1ccc(CCNc2ccnc(Nc3ccc4[nH]nnc4c3)n2)cc1 | 3.23
CCC(=O)c1ccc(-c2ccc(=O)n(CC(=O)N(CCN(CC)CC)Cc3ccc(-c4ccc(C(F)(F)F)cc4)cc3)n2)cc1 | 7.48
CCCNc1nc(NCc2c(C)cccc2C)nc(NC(C)(C)C)n1 | 8.2
CNc1ccc(CNCc2ccc(-c3ccc(-c4nc5cccc(C)c5[nH]4)cc3)cc2)cc1 | 11.3
CC(C)NC(C)(C)CN(Cc1ccc(-c2ccc(C(F)(F)F)cc2)cc1)C(=O)Cn1c(CCc2cccc(F)c2F)nc(=O)c2ccccc21 | 8.03
COc1ccc(-c2cccc(NC(=O)c3ccc(Cl)cc3)c2)cc1CN1CCNCC1 | 7.77
COc1cc(CNC[C@@H](O)[C@H](Cc2ccccc2)NC(=O)c2cc(C3CCCC3)cc(N3CCCCS3(=O)=O)c2)cc(OC)c1 | 12.1
COc1ccc(C=NN=c2cc[nH]c3ccccc23)c2ccccc12 | 5.52
CC(=O)N1CCC(C(=O)Nc2ccc(-c3cccc(-c4nc5cc(C(F)(F)F)ccc5[nH]4)c3)cc2)CC1 | 5.61
N#Cc1ccc(CN2CCCN(Cc3cccc(NC(=O)c4cc5ccccc5s4)c3)CC2)cc1 | 7.03
CCCCCCNC(=O)C1Cc2c([nH]c3ccc(C)cc23)C2(CCN(Cc3ccccc3)CC2)N1 (stereo not drawn) | 4.83
COc1ccccc1-c1ccc2nnc(SCC(=O)Nc3ccc4c(c3)OCCO4)n2n1 | 0.9
O=C(Nc1ccc(CCNCCCc2ccccc2)cc1)Nc1ccc(Cl)c(Cl)c1 | 10.2
COc1ccc(CCCON2C(=N)N=C(N)NC2(C)C)cc1 | 3.85
C[C@@H](N/C(=N\c1ccc(-c2ccccc2)cc1)Nc1ccc(C#N)cc1O)c1ccc(Br)cc1 | 0.73
Cc1ccc(C)c2sc(N(CCCn3ccnc3)C(=O)C=Cc3cccs3)nc12 | 4.26

SMILES | IFI [%]
COc1ccc(-c2ccc(CNC(=O)c3ccc(Cl)cc3)c(F)c2)cc1CN1CCCN(C)CC1 | 11.4
O=S(=O)(c1ccc2cc[nH]c2c1)N1CCC[C@@H]1CCN1CCC(c2c[nH]c3cnccc23)CC1 | 4.93
O=C(Nc1cccc(-c2cc(-c3c(Cl)cccc3Cl)no2)c1)c1cncc(-c2cccs2)c1 | 0.85
Cc1ccc(C2(CN3CCC(NC(=O)c4n[nH]cc4Cl)CC3)CCCCC2)cc1 | 8.33
CSC1=NC(C)(C)CC2(CC(c3cccc(C)c3)c3cc(Cl)c(O)cc3O2)N1 (stereo not drawn) | 3.47
CCOc1cc(C(=O)NC2CCN(Cc3ccccc3)C2)ccc1-c1nc2cc(Cl)ccc2[nH]1 (stereo not drawn) | 2.14
O=C(Nc1ccc(Cl)cc1)Nc1ccc(-c2ccc(-c3nc4ccccc4[nH]3)cc2)cc1 | 1
O=c1c(Br)ccccc1Br | 11.6
CCc1ccc(C2CCN(CCCCNC(=O)c3ccc(NC(=O)c4ccc(Cl)cc4)cc3)CC2)c(OCC(=O)OC)c1 | 7.21
c1ccc(-c2nc(Nc3nc4ccccc4[nH]3)[nH]c2-c2ccccc2)cc1 | 5.38
Cc1nc2nc(N)nc(N)c2c(C)c1Cc1ccccc1I | 4.08
C[C@@H](Oc1cc(-n2cnc3cc(SCCN4CCN(C)CC4)ccc32)sc1C(N)=O)c1ccccc1Cl | 13.7
O=[N+]([O-])c1cccc(/C=N/Nc2ccnc3cc(F)ccc23)c1 | 1.49
O=C(COc1ccccc1)NC1CCN(c2ccnc3cc(Cl)ccc23)C1 (stereo not drawn) | 3.08
CC(C)Cc1cn(-c2nc(C(=N)N)cs2)c2cc(Cl)ccc12 | 23.9
CN1CCCc2ccc(NC(=O)c3cc(-c4ccc(Cl)cc4)cs3)cc2C1 | 6.9
Cc1cccc2nc(-c3cccc(-c4cccc(NC(=O)c5cccnc5)c4)c3)[nH]c12 | 3.74
O=C(Nc1ccc(Oc2ccccc2)cc1)N[C@H]1CCN(Cc2ccc(OCCCN3CCCCC3)cc2)C1 | 7.86

From ChEMBL document CHEMBL1157539, “Thousands of chemical starting points for antimalarial lead identification” (Nature, 2010)
